Measurements: PubChem BioAssay AID1347120 (National Center for Advancing Translational Sciences (NCATS), 2019)
The campaign covered roughly 390,000 compounds. About 930 (0.24%) were called active. The inconclusive results got no clear call from the source; some entries with a clear call stand among them for comparison. The call rests on the fitted dose curve; in most records, active means well fitted activation curve with a large enough effect; inconclusive means small, poorly fitted or top-dose-only effect; inactive means no such curve, though single readings can be large or run the other way. Potencies beside an inconclusive call are fits to weak or partial responses and may not hold up.

Experiment: qHTS for Suppressors of FUS Proteinopathy: Primary screen using FUS-linked yeast assay; further: nearly all actives have a fitted effect of over 55% in size;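 on growth rescue (activation): plate controls were DMSO vehicle for no effect and reference control for full effect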
Settings: S. cerevisiae FUS-expressing, OD600, 24 h; Potency: growth rescue; growth rescue (activation): at 76.6 µM (top of the series)
Outline: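 Compound concentration series was pinned onto galactose-induced FUS-expressing yeast seeded at OD 0.005. Plates sat 24hr at 30C; absorbance at 600 nm gave growth. DMSO served as background control.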
Potency means the concentration at half of the fitted maximal effect; tags describe the fitted curve by direction and shape.

| Structure (SMILES) | Potency | growth rescue (activation) |
| --- | --- | --- |
| O=C1NCN(c2ccccc2)C12CCN(C(c1cccs1)c1nnnn1Cc1ccccc1)CC2 (configuration not stated) | inconclusive: 11.2 µM [activator, partial curve] | – |
| CCOC(=O)[C@]12Cc3cc4ccccc4cc3[C@H]1N(Cc1ccccc1)C(=O)c1cc(OC)ccc12 | inconclusive: 44.7 µM [activator, single point] | – |
| O=C(CN1C(=O)CN=C(c2ccccc2)c2ccccc21)Nc1cccc(C(F)(F)F)c1 | inconclusive: 25.1 µM [activator, partial curve] | – |
| COC(=O)C1=C(c2ccc(F)cc2OCc2ccccc2)C[C@@H]2CC[C@H]1N2C(=O)NCc1ccc(OC)c(OC)c1 | inconclusive: 31.6 µM [activator, single point] | – |
| COC(=O)C1=C(c2ccc(OCc3ccccc3)cc2)C[C@@H]2CC[C@H]1N2C(=O)NCc1ccccc1 | inconclusive: 17.8 µM [activator, partial curve, poor fit] | – |
| COC(=O)C1=C(c2cccc(OCc3ccccc3)c2)C[C@@H]2CC[C@H]1N2C(=O)NCc1ccc2[nH]ccc2c1 | active: 8.91 µM | – |
| O=C(O)c1cccc2c1NC(c1cccc([N+](=O)[O-])c1)C1CC(Sc3ccccc3[N+](=O)[O-])C(Cl)C21 (configuration not stated) | inactive | – |
| CN(C)/C=C1/C(=O)NC(=O)N(CCNc2ncc(C(F)(F)F)cc2Cl)C1=O | inconclusive: 50.1 µM [activator, single point] | – |
| COC(=O)C1=C(c2ccc(OC(F)(F)F)cc2)C[C@@H]2CC[C@H]1N2C(=O)NCCOc1ccccc1 | inconclusive: 22.4 µM [activator, single point] | – |
| CCOC(=O)c1c(NC(=O)C(c2ccccc2)c2ccccc2)sc2c1C1CCN2CC1 | inconclusive: 31.6 µM [activator, single point] | – |
| Cc1nc2cc([N+](=O)[O-])ccc2c(=O)n1-c1ccccc1[N+](=O)[O-] | inactive | – |
| Cc1cc(/C=C2/C(=O)NC(=O)N(Cc3ccco3)C2=O)c(C)n1-c1ccccc1 | inconclusive: 44.7 µM [activator, single point] | – |
| BrCC1C[n+]2c(SCc3ccccc3)nc3sc4c(c3c2O1)CCCC4 (configuration not stated) | inconclusive: 39.8 µM [activator, single point] | – |
| CN1CCN(C(=O)COc2ccc(N(C)S(=O)(=O)c3ccc(F)cc3)cc2)CC1 | inconclusive: 28.2 µM [activator, partial curve, poor fit] | – |
| CCN(CC)C(=O)c1ccc(NC(=O)CCn2nc(-c3ccc(C)cc3)c3ccccc3c2=O)cc1 | inconclusive: 35.5 µM [activator, single point] | – |
| Cc1ccc2nc(-c3ccncc3)cc(C(=O)N3CCC4(CC3)OCCO4)c2c1 | inactive | – |
| CCCC/C(C)=C/[C@@H](NP(=O)(c1ccccc1)c1ccccc1)c1ccccc1 | inconclusive: 28.2 µM [activator, single point] | – |
| CCN(CC)C(=O)c1ccc(NC(=O)CCn2nc(-c3ccc(Cl)cc3)c3ccccc3c2=O)cc1 | inconclusive: 50.1 µM [activator, single point] | – |
| CC[N+]12CCC(CC1)C(C(O)(c1ccccc1)c1ccccc1)C2 (configuration not stated) | inactive | – |
| COC(=O)C1=C(c2cccc(C#N)c2)C[C@@H]2CC[C@H]1N2C(=O)NCc1cc(C)oc1C(F)(F)F | inconclusive: 39.8 µM [activator, single point] | – |
| CNC(=O)Nc1ccc(C(=O)N/N=C\C23CC[C@@H](O)CC2(O)CC[C@@H]2[C@@H]3CCC3(C)C(C4=CC(=O)OC4)CCC23O)cc1 (some centres not stated) | inconclusive: 50.1 µM [activator, single point] | – |

| Structure (SMILES) | Potency | growth rescue (activation) |
| --- | --- | --- |
| CCN(CC)S(=O)(=O)c1cc(NC(=O)C(C)N2CC=C(c3ccccc3)CC2)ccc1C (configuration not stated) | inactive | – |
| O=C1NCN(c2ccccc2)C12CCN(C(CCc1ccccc1)c1nnnn1Cc1ccccc1)CC2 (configuration not stated) | inconclusive: 8.91 µM [activator, partial curve, poor fit] | – |
| COC(=O)C1=C(c2ccc(-c3ccccc3)c(F)c2)C[C@@H]2CC[C@H]1N2C(=O)NCCc1ccccc1 | inconclusive: 14.1 µM [activator, partial curve] | – |
| c1ccc2nc(N3CCNCC3)ccc2c1 | inactive | – |
| O=c1[nH]cc(N(CCCl)CCCl)c(=O)[nH]1 | inactive | – |
| OCCNc1c2c(nc3ccccc13)CCCC2 | inactive | – |
| Cc1c(C(=O)c2cccc3ccccc23)c2cccc3c2n1[C@H](CN1CCOCC1)CO3 | inactive | – |
| COC(=O)C1=C(c2cc3ccccc3s2)C[C@@H]2CC[C@H]1N2C(=O)N1CCC(C)CC1 | inconclusive: 20 µM [activator, single point] | – |
| CN1CCN(c2ccc(/C=C3\C(=O)NC(=S)N(c4cccc(Br)c4)C3=O)o2)CC1 | inconclusive: 20 µM [activator, single point] | – |
| COc1cccc(C(c2nnnn2-c2c(C)cccc2C)N2CCC(n3c(=O)[nH]c4ccccc43)CC2)c1OC (configuration not stated) | inconclusive: 8.91 µM [activator, partial curve] | – |
| Cc1cc(OCC(=O)NC(Cc2ccc(Cl)cc2)C(=O)O)c2c3c(c(=O)oc2c1)CCCC3 (configuration not stated) | inactive | – |
| Cc1ccc(S(=O)(=O)N(C)CCCC(=O)N2CCN(c3ccccn3)CC2)cc1 | inactive | – |
| CCOC(=O)C1(CCOc2ccccc2)CCN(Cc2ccc(C)s2)CC1 | inconclusive: 11.2 µM [activator, single point] | – |
| C/C(=N\Nc1ccccc1)c1c(O)n(C)c(=O)n(C)c1=O | inconclusive: 10 µM [activator, full curve] | – |
| O=C1NCN(c2ccccc2)C12CCN(C(c1cccc3ccccc13)c1nnnn1C1CCCC1)CC2 (configuration not stated) | inconclusive: 3.98 µM [activator, full curve, poor fit] | – |
| CCOC(=O)[C@]12Cc3cc(OC)ccc3[C@H]1N(C)C(=O)c1cc(OC)ccc12 | inactive | – |
| COC(=O)C1=C(c2cc3ccccc3o2)C[C@@H]2CC[C@H]1N2C(=O)NCc1cccc2ccccc12 | inconclusive: 22.4 µM [activator, single point] | – |
| CCOP(=S)(OCC)N1CCOCCOCCN(P(=S)(OCC)OCC)CCOCCOCC1 | inconclusive: 14.1 µM [activator, partial curve, poor fit] | – |
| C#C[C@]1(O)CC[C@H]2[C@@H]3CCC4=Cc5nc6nc7ccccc7n6cc5C[C@]4(C)[C@H]3CC[C@@]21C | inconclusive: 31.6 µM [activator, single point] | – |
| CCC(C)/C=C(C)/C=C/C1=CC2=C(Cl)C(=O)C(C)(OC(C)=O)C(=O)C2=CO1 (configuration not stated) | inconclusive: 31.6 µM [activator, single point] | – |
| CCC(=NCc1ccc(F)cc1)c1c(O)n(C)c(=O)n(C)c1=O | inactive | – |

| Structure (SMILES) | Potency | growth rescue (activation) |
| --- | --- | --- |
| O=C(C(=O)N1CCOCC1)c1cn(Cc2ccccc2F)c2ccccc12 | inactive | – |
| COC(=O)c1nc(-c2ccc3c(n2)C(=O)C(N)=C(OC)C3=O)c(N)c(-c2ccc(OC)c(OC)c2O)c1C | inconclusive: 25.1 µM [activator, partial curve, poor fit] | – |
| COc1ccc2c(c1)c(C(=O)O)c(C)n2CC(C)C | inactive | – |
| NP(=O)(OCC(F)(F)F)Oc1ccccc1 (configuration not stated) | – | inconclusive: 73.5% [activator] |
| CC/C(=N\NC(=O)c1ccccc1O)c1c(O)n(C2CCCCC2)c(=O)[nH]c1=O | inconclusive: 3.16 µM [activator, full curve] | – |
| Oc1ccccc1-[n+]1c(-c2ccccc2)cc(-c2ccccc2)cc1-c1ccccc1 | inactive | – |
| CCOc1ccc(N2C(=O)/C(=C/c3ccco3)C(=O)NC2=S)cc1 | inconclusive: 31.6 µM [activator, partial curve, poor fit] | – |
| COc1ccc(-n2c(/C=C\c3ccccc3F)nc3ccccc3c2=O)c(OC)c1 | inconclusive: 28.2 µM [activator, single point] | – |
| Cc1ccc(-n2c(O)c(C=NCc3ccco3)c(=O)[nH]c2=S)cc1C | inconclusive: 31.6 µM [activator, single point] | – |
| N#Cc1cc2c(nc1SCC(=O)Nc1ccc(C(F)(F)F)cc1)C1CCN2CC1 | inactive | – |
| O=C1NC(=O)N(Cc2ccc(F)cc2)C(=O)/C1=C\c1ccoc1 | inactive | – |
| O=C(c1ccc2nc(-c3ccco3)c(-c3ccco3)nc2c1)N1CCC2(CC1)OCCO2 | inconclusive: 22.4 µM [activator, partial curve, poor fit] | – |
| COc1cccc(N2C(=O)/C(=C/c3ccc(C)o3)C(=O)NC2=S)c1 | inconclusive: 25.1 µM [activator, single point] | – |
| CCOC(=O)C1=C(C)N(C)C2(C)CC1c1ccccc1O2 (configuration not stated) | inconclusive: 14.1 µM [activator, partial curve] | – |
| Nc1nonc1OCCCCOc1nonc1N | inactive | – |
| Cc1ccc(N2C(=O)NC(=O)C3(Cc4ccccc4N4CCCC43)C2=O)cc1 (configuration not stated) | inconclusive: 28.2 µM [activator, single point] | – |
| Cc1ccccc1-c1ccc2c(c1)C1c3c(-c4ccccc4)nnn3-c3ccccc3C(=O)N1CC2 (configuration not stated) | inconclusive: 6.31 µM [activator, full curve, poor fit] | – |
| C=C(CC1CC(O)[C@]2(C)OC3CC4OC5C[C@]6(C)O[C@]7(C)CCC8OC9C[C@]%10(C)OC%11C(C)=CC(=O)OC%11CC%10OC9C[C@@H](C)C8OC7CC6O[C@]5(C)C/C=C\C4OC3CC2O1)C(=O)O (some centres not stated) | inconclusive: 7.94 µM [activator, full curve] | – |
| CC1(C(=O)O)CCCC2(C)c3cc(O)ccc3CCC12 (configuration not stated) | inactive | – |
| CC(=NCCCN1CCCCC1)c1c(O)n(Cc2ccccc2)c(=O)[nH]c1=O | – | inconclusive: 57.9% [activator] |
